Measured values reported in paper PMC4336329 (PLoS ONE, 2015).
Screen size: about 310,000 compounds; about 14,000 (4.5%) showed an effect of 50% or more. The effect is printed as a negative number. The list shows a part of the results.

Target: human ether-à-go-go-related gene (hERG) potassium channel (human, UniProt Q12809)
Experiment: primary screen, population patch clamp on CHO cells stably expressing hERG
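Further: peak tail current of the secondary pulse compared with the same well before compound.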

Chain of human ether-à-go-go-related gene (hERG) potassium channel (Q12809 whole entry, looked up): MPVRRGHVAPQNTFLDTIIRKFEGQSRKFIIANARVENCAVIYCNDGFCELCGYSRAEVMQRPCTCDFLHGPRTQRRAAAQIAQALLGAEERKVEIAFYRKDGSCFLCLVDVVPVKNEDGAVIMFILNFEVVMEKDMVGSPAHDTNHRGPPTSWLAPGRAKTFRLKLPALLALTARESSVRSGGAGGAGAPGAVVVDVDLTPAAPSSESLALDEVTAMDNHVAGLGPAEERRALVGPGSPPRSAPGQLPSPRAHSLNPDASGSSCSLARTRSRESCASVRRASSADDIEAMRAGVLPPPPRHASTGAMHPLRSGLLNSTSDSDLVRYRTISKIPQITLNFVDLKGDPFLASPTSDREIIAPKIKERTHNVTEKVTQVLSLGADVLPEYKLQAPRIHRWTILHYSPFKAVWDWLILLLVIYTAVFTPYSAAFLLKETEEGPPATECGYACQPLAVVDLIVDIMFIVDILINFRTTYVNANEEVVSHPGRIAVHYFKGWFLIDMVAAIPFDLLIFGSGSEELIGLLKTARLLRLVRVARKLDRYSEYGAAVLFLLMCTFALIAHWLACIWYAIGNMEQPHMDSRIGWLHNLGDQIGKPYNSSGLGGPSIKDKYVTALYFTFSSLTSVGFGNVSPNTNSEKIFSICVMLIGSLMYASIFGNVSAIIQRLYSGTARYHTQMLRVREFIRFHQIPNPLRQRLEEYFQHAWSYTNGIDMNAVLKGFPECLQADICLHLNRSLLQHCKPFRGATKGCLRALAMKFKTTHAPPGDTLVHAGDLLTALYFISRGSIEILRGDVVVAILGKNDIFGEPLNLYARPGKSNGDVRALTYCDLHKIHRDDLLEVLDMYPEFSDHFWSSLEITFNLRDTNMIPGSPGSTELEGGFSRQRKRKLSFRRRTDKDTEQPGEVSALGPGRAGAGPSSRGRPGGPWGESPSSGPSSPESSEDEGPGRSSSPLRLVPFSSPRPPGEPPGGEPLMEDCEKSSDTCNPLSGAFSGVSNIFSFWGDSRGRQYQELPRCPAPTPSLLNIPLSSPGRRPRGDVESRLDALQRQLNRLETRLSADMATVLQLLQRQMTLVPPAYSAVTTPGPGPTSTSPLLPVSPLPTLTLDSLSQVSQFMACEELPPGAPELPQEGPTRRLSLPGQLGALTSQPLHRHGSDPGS

| Structure (SMILES) | hERG current change (%, negative = inhibition) at 10uM |
| --- | --- |
| CC(=O)c1ccc(NC(=O)c2ccc(NC(=O)c3ccco3)cc2)cc1 | 21.6% |
| Cn1c(C(=O)N2CCN(c3ccc(Cl)cc3)CC2)cc2c(=O)[nH]c3ccccc3c21 | -114% |
| COc1ccc(CNc2nccs2)cc1 | 6.49% |
| CCN(CC)c1ccc(C=C(c2nnnn2-c2ccc(C)cc2)c2nnnn2-c2ccc(C)cc2)cc1 | 11.4% |
| FC(F)(F)Sc1ccc(NC(=S)NCc2ccccc2)cc1 | 11% |
| CCN(CCNC(=O)CC1Oc2ccccc2NC1=O)c1ccccc1 (centres unmarked) | 9.82% |
| CCC(C)NC(=S)N1CCN(Cc2ccccc2)CC1 (centres unmarked) | 3.92% |
| O=C(c1ccc(Cl)c([N+](=O)[O-])c1)N(c1ccccn1)c1ccccn1 | -19.6% |
| CC(=O)c1ccc(N=C2SCCCN2C(=O)C2CCCCC2)cc1 | 5.8% |
| Cn1c(CC(=O)Nc2ccc(Cl)c(Cl)c2)nnc1SCC(=O)Nc1nccs1 | -3.76% |
| CCCC(=O)c1ccc(N2CCCC2)c(F)c1 | 6.96% |
| N#CCN(C(=O)COC(=O)CCCNC(=O)c1ccc(Cl)cc1)c1ccccc1 | -26% |
| CCCn1c2ccccc2c2cnn(CC(=O)NC3CCCCC3)c(=O)c21 | 2.23% |
| Cc1ccc2nc(SCn3nnc4ccccc4c3=O)[nH]c2c1 | 18% |
| Clc1ccc(/C=N/Nc2ncnc3nc[nH]c23)cc1 | -33.6% |
| C=CCNCCCCOc1c(Cl)cc(C)cc1Br.O=C(O)C(=O)O | -31.7% |
| Cc1ccccc1C(=O)Nc1ccnn1C1CCN(Cc2cnn(C(C)C)c2)CC1 | -72.3% |
| Cc1onc(-c2ccccc2)c1C(=O)N1CCN(S(=O)(=O)c2ccc(Cl)cc2)CC1 | -21.5% |
| COc1cc(C(c2sc3nc(C)nn3c2O)N2CC(C)CC(C)C2)cc(OC)c1OC (centres unmarked) | -1.84% |
| Cc1cc(C(=O)CSc2n[nH]c(N)n2)c(C)n1-c1ccc(F)cc1 | -1.14% |
| Cc1ccc[n+](CC(=O)c2ccc(Br)cc2)c1C.[Br-] | -4.55% |
| Cc1cc(C)n(-c2ccc(-n3ccnc3)nn2)n1 | -4.08% |

| Structure (SMILES) | hERG current change (%, negative = inhibition) at 10uM |
| --- | --- |
| O=C(c1ccc(Cl)c(Cl)c1)N1CCN(Cc2ccc3c(c2)OCO3)CC1 | -35.7% |
| CN1CCN(CC(=O)Nc2c(C(=O)C3CC3)oc3ccccc23)CC1 | -52.4% |
| O=C(CN(Cc1ccc2c(c1)OCO2)C(=O)CNS(=O)(=O)c1ccccc1)NCC1CCCO1 (centres unmarked) | 7.4% |
| Cc1ccc(NC(=O)CSc2ccc(C(N)=O)cc2[N+](=O)[O-])cc1 | 1.12% |
| O=C(NC1CCCCC1)C1CCN(S(=O)(=O)c2cccc3nonc23)CC1 | 5.97% |
| CCCOc1ccc(-c2cn3ccccc3n2)cc1[N+](=O)[O-] | -5.57% |
| CNc1oc(-c2ccc(Cl)cc2)nc1P(=O)(c1ccccc1)c1ccccc1 | 12.6% |
| O=C(NNC(=O)C1C2CCC(C2)C1C(=O)O)c1ccc(Cl)cc1 (centres unmarked) | 16% |
| CCOC(=O)C(C)Sc1nc(-c2ccccc2)nc2ccccc12 (centres unmarked) | 17.5% |
| Cc1ccccc1OCC(=O)Nc1ccc2c(c1)COC2=O | -4.65% |
| CCC(=O)c1ccc(OCC(=O)Nc2ccc3nc(C)sc3c2)cc1 | 6.06% |
| O=C(Cc1ccc([N+](=O)[O-])cc1)Nc1nnc(C2CC2)s1 | 4.33% |
| N#C/C(=C(/O)COc1cccc2ccccc12)c1nc2ccccc2[nH]1 | 2.21% |
| Cn1cnnc1SCCNS(=O)(=O)c1cccc([N+](=O)[O-])c1 | 2.39% |
| Cc1cc2c3c(c1)C(C)CC(C)(C)N3C(=O)C2=C(C#N)C#N (centres unmarked) | 14.1% |
| CC(C)(C)c1ccc(C(=O)OCC(=O)Nc2sc3c(c2C#N)CCC3)cc1 | -12.4% |
| O=C(O)CC(NS(=O)(=O)c1cccc2nsnc12)c1ccc(F)cc1 (centres unmarked) | -17.2% |
| CCc1nn(CC(=O)NCCCN(CC)Cc2ccccc2)c(=O)c2cc3sccc3n12 | -50.2% |
| CN(CCc1ccccn1)C(=O)Nc1cc(Cl)cc(Cl)c1 | -40% |
| Cc1ccc(C(=O)NCC(=O)NCC(=O)OCc2ccc(F)cc2)cc1 | 6.83% |
| CC(C)CCNS(=O)(=O)c1ccc(-c2ccc(S(=O)(=O)NCCC(C)C)cc2)cc1 | 17.4% |
| COc1cccc(-c2cc(C(=O)NCc3ccco3)c3ccccc3n2)c1 | -18.7% |
